# Screen size: about 310,000 compounds; about 14,000 (4.5%) showed an effect of 50% or more. Effects have a minus sign here. The list shows a part of the results.
# Target: human ether-à-go-go-related gene (hERG) potassium channel (human, UniProt Q12809)
# Assay: primary screen, population patch clamp on CHO cells stably expressing hERG
# 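Also: peak tail current of the secondary pulse compared with the same well before compound.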
# Sequence of human ether-à-go-go-related gene (hERG) potassium channel (Q12809 whole entry, looked up): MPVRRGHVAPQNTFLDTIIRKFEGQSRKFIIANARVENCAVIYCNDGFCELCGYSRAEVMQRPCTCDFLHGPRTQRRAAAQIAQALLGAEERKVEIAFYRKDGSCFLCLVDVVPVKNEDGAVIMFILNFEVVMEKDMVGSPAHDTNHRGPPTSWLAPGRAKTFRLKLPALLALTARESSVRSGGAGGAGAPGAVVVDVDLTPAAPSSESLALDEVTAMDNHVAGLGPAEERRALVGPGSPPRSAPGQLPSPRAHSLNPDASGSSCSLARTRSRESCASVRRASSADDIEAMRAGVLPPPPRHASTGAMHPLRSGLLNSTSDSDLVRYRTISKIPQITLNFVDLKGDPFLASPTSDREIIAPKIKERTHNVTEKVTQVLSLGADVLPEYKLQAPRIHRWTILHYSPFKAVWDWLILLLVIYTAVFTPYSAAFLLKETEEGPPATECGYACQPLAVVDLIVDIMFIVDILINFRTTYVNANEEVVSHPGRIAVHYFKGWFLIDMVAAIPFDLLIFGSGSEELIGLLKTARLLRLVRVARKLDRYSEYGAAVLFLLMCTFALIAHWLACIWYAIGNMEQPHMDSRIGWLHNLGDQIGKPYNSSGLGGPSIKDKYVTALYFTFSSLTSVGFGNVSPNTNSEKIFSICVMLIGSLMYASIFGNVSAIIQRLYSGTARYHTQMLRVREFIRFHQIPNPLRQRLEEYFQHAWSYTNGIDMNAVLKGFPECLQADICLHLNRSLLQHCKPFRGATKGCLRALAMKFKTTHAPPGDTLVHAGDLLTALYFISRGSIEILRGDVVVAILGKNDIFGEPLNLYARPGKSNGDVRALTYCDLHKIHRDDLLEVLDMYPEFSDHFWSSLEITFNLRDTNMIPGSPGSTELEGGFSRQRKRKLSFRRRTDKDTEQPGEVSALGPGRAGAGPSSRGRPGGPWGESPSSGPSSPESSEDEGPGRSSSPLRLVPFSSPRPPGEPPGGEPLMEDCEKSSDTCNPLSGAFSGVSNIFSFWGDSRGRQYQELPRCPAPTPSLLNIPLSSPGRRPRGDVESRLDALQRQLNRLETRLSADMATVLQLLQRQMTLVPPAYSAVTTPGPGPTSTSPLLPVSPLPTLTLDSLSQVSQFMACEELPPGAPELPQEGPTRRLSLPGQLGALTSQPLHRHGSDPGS
row,Compound,"hERG current change (%, negative = inhibition) at 10uM [%]"
1,O=C(c1cc(COc2ccc(F)cc2F)on1)N1C[C@H]2CC[C@H]1C2,1.98
2,CCO.COc1ccc(CNc2nc3ccccc3n2Cc2ccc(Cl)cc2)cc1OC,-16.2
3,Cn1nnnc1SCCNCc1ccccc1OCc1ccccc1,-9.36
4,CCOC(=O)CNC(=O)c1cc(-c2ccc3c(c2)OCCO3)oc1C,-13.4
5,O=C1/C(=C/c2cccnc2)CCc2c1[nH]c1ccccc21,-15.4
6,O=C(Nc1ccc(-n2cnnn2)cc1)C1CCC1,11.3
7,Cc1cc2cc(CN3C(=O)c4ccccc4C3=O)ccc2n1C,15.6
8,O=C(COc1ccc(/C=N/NC(=O)c2cccnc2)cc1)Nc1ccccc1,8.67
9,CC1CC(C)CN(C(=O)COC(=O)c2c[nH]c3ccccc23)C1 (stereo not drawn),-18.3
10,O=C(CC1CCCCC1)N1CCC(c2nc(-c3ccc(S(=O)(=O)N4CCCC4)cc3)no2)CC1,-9.47
11,COc1ccc(CC(=O)N/N=C/c2c(C)n(C)c3ccccc23)cc1OC,-0.309
12,CN(C)/C=C/C(=O)c1ccccc1,1.07
13,Cc1cccc(NC(=O)c2cccc(C(=O)Nc3cccc(C)c3C)n2)c1C,15.1
14,COc1ccc(COCC(O)CN2CCC(C(N)=O)CC2)cc1OC (stereo not drawn),-7.47
15,Cn1c(C(=O)NCCCN2CCN(c3cccc(Cl)c3)CC2)cc2c(=O)n(C)c3ccccc3c21,9.13
16,COc1ccc(OC)c(C(C)NC(=O)Nc2cccc(C(C)=O)c2)c1 (stereo not drawn),8.24
17,Cc1ccc(/C=c2\sc3nc(-c4ccco4)nn3c2=O)o1,-0.405
18,CCOC(=O)c1cnc2cc(-c3ccc(Br)cc3)nn2c1C,21.4
19,CCC(C)c1ccc(NC(=O)C2CCN(c3ccc(C(F)(F)F)cn3)CC2)cc1 (stereo not drawn),3.66
20,O=C(CC1CCCC1)Nc1cc(C(F)(F)F)ccc1-n1cncn1,-10.4
21,O=C1Nc2ccccc2N=C(c2ccccc2)C1N1CCOCC1 (stereo not drawn),12.7
22,CCCCNCCOCCOc1ccc(F)cc1,1.2
23,Cc1ccc(OCC(=O)Nc2ccc(S(=O)(=O)N3CCN(C)CC3)cc2)cc1,-6.8

row,Compound,"hERG current change (%, negative = inhibition) at 10uM [%]"
1,O=C1c2ccccc2NC(c2cccc(O)c2)N1Cc1ccco1 (stereo not drawn),-14.5
2,CC(C)CNC(=S)NNC(=O)c1ccccc1OC(F)F,-0.213
3,COc1ccc(NC(=O)Nc2ccc3[nH]ccc3c2)cc1,14.1
4,c1nc(N2CCN(Cc3ccc4c(c3)OCO4)CC2)c2[nH]cnc2n1,-13.3
5,CCN(CC)CCSc1nc2ccc(OC)cc2[nH]1.Cl,-64.7
6,CCc1nc(N2CCN(C(=O)c3ccccc3)CC2)c(C#N)c2c1COC(C)(C)C2,-46.5
7,NC(=O)c1sc2cc(C(F)(F)F)cnc2c1-c1cccs1,3.94
8,O=C(NN=C1CCCC1)c1cc(Br)ccc1O,-1.78
9,O=C(c1ccc(C(F)(F)F)cc1)C1CCCN(C(=O)CCc2cnccn2)C1 (stereo not drawn),-15.1
10,O=C(CN1C(=O)C2C3c4ccccc4C(c4ccccc43)C2C1=O)N1CCOCC1 (stereo not drawn),-16.6
11,CS(=O)(=O)N1CCC(C(=O)Nc2cc(Cl)cc(Cl)c2)CC1,4.85
12,CCOC(=O)c1nc(C)n(-c2cc(Cl)ccc2Cl)n1,1.64
13,CCC1C(=O)NCCN1Cc1nc(-c2ccc(C)s2)oc1C (stereo not drawn),27.9
14,FC(F)(F)c1cccc(-n2c(Cn3nnc4ccccc43)n[nH]c2=S)c1,18.3
15,COc1ccc(-n2c(SCCC(=O)O)nnc2-c2ccncc2)cc1,2.34
16,Cc1ccc([N+](=O)[O-])cc1-c1ccc(/C=C(\C#N)c2[nH]nc(N)c2C#N)o1,12.1
17,CCCn1ccnc1SC(C)C(=O)Nc1c(C)n(C)n(-c2ccccc2)c1=O (stereo not drawn),16.9
18,O=C(OCCc1cc2ccccc2c(=O)o1)c1ccc(F)cc1,3.89
19,CC(=O)Nc1nc(C)nc(C)c1C(C)=O,13.8
20,CC(=O)Nc1ccc(NC(=O)COC(=O)c2cc(S(=O)(=O)N(C)C)ccc2N2CCCC2)cc1,-9.08
21,C/C(=N/N1CCN(Cc2ccccc2)CC1)c1ccc(Br)cc1,-19.9
22,CC1CCc2cc(F)ccc2N1S(=O)(=O)c1ccc(Cl)nc1 (stereo not drawn),6.3

# From PMC4336329 (PLoS ONE, 2015)
